Residue numbers refer to the chain shown, from its start. This is one part of the list.
T1: RBFOX1 RRM (Homo sapiens, UniProt Q9NWB1 109-208)
T1 sequence: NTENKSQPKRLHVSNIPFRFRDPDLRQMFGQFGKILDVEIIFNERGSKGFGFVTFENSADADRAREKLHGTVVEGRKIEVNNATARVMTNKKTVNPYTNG

B1: GGUGGUG (DNA:RNA)
RNA: GGGAGACCGGAAUUCAGAUUGUCCGGUGGUGUUAAAUCCCGUCGUAGCCACCA
DNA 1: CAATCTGAATTCCGGTCTCCC
DNA 2: TGGTGGCTACGACGGGATT
B2: UGUUAAA (DNA:RNA)
RNA: B1 RNA with G25U, G28U, G29A, U30A, G31A
DNA 1: CAATCTGAATTCCGGTCTCCC
DNA 2: TGGTGGCTACGACGGGATT
B3: UGUGGUG (DNA:RNA)
RNA: B1 RNA with G25U
DNA 1: CAATCTGAATTCCGGTCTCCC
DNA 2: TGGTGGCTACGACGGGATT
B4: ACGUCAU (DNA:RNA)
RNA: GGGAGACCGGAAUUCAGAUUGUCCACGUCAUUUAAAUCCCGUCGUAGCCACCA
DNA 1: CAATCTGAATTCCGGTCTCCC
DNA 2: TGGTGGCTACGACGGGATT
B5: CCCAGUU (DNA:RNA)
RNA: B4 RNA with A25C, G27C, U28A, C29G, A30U
DNA 1: CAATCTGAATTCCGGTCTCCC
DNA 2: TGGTGGCTACGACGGGATT
B6: AUUGCCG (DNA:RNA)
RNA: B1 RNA with G25A, G26U, G29C, U30C
DNA 1: CAATCTGAATTCCGGTCTCCC
DNA 2: TGGTGGCTACGACGGGATT
B7: UCGCUAG (DNA:RNA)
RNA: B4 RNA with A25U, U28C, C29U, U31G
DNA 1: CAATCTGAATTCCGGTCTCCC
DNA 2: TGGTGGCTACGACGGGATT
B8: GACUAUG (DNA:RNA)
RNA: B1 RNA with G26A, U27C, G28U, G29A
DNA 1: CAATCTGAATTCCGGTCTCCC
DNA 2: TGGTGGCTACGACGGGATT
B9: UGCCAAA (DNA:RNA)
RNA: B4 RNA with A25U, C26G, G27C, U28C, C29A, U31A
DNA 1: CAATCTGAATTCCGGTCTCCC
DNA 2: TGGTGGCTACGACGGGATT
B10: AUAACUA (DNA:RNA)
RNA: B4 RNA with C26U, G27A, U28A, A30U, U31A
DNA 1: CAATCTGAATTCCGGTCTCCC
DNA 2: TGGTGGCTACGACGGGATT
B11: CCAGGUG (DNA:RNA)
RNA: B1 RNA with G25C, G26C, U27A
DNA 1: CAATCTGAATTCCGGTCTCCC
DNA 2: TGGTGGCTACGACGGGATT
B12: GAUAAGU (DNA:RNA)
RNA: B1 RNA with G26A, G28A, G29A, U30G, G31U
DNA 1: CAATCTGAATTCCGGTCTCCC
DNA 2: TGGTGGCTACGACGGGATT
B13: CAUUAUC (DNA:RNA)
RNA: B1 RNA with G25C, G26A, G28U, G29A, G31C
DNA 1: CAATCTGAATTCCGGTCTCCC
DNA 2: TGGTGGCTACGACGGGATT
B14: CGGCGUG (DNA:RNA)
RNA: B1 RNA with G25C, U27G, G28C
DNA 1: CAATCTGAATTCCGGTCTCCC
DNA 2: TGGTGGCTACGACGGGATT
B15: GCAUAAG (DNA:RNA)
RNA: B4 RNA with A25G, G27A, C29A, U31G
DNA 1: CAATCTGAATTCCGGTCTCCC
DNA 2: TGGTGGCTACGACGGGATT
B16: GCCGAGU (DNA:RNA)
RNA: B4 RNA with A25G, G27C, U28G, C29A, A30G
DNA 1: CAATCTGAATTCCGGTCTCCC
DNA 2: TGGTGGCTACGACGGGATT
B17: AAAAUCC (DNA:RNA)
RNA: B4 RNA with C26A, G27A, U28A, C29U, A30C, U31C
DNA 1: CAATCTGAATTCCGGTCTCCC
DNA 2: TGGTGGCTACGACGGGATT
B18: GCAUUAC (DNA:RNA)
RNA: B4 RNA with A25G, G27A, C29U, U31C
DNA 1: CAATCTGAATTCCGGTCTCCC
DNA 2: TGGTGGCTACGACGGGATT
B19: GUCAGGG (DNA:RNA)
RNA: B1 RNA with G26U, U27C, G28A, U30G
DNA 1: CAATCTGAATTCCGGTCTCCC
DNA 2: TGGTGGCTACGACGGGATT
B20: UCAAAUU (DNA:RNA)
RNA: B4 RNA with A25U, G27A, U28A, C29A, A30U
DNA 1: CAATCTGAATTCCGGTCTCCC
DNA 2: TGGTGGCTACGACGGGATT
B21: UAUAGCA (DNA:RNA)
RNA: B1 RNA with G25U, G26A, G28A, U30C, G31A
DNA 1: CAATCTGAATTCCGGTCTCCC
DNA 2: TGGTGGCTACGACGGGATT
B22: CUACAGA (DNA:RNA)
RNA: GGGAGACCGGAAUUCAGAUUGUCCCUACAGAUUAAAUCCCGUCGUAGCCACCA
DNA 1: CAATCTGAATTCCGGTCTCCC
DNA 2: TGGTGGCTACGACGGGATT
B23: AAUGGGG (DNA:RNA)
RNA: B1 RNA with G25A, G26A, U30G
DNA 1: CAATCTGAATTCCGGTCTCCC
DNA 2: TGGTGGCTACGACGGGATT
B24: GGGUCAU (DNA:RNA)
RNA: B4 RNA with A25G, C26G
DNA 1: CAATCTGAATTCCGGTCTCCC
DNA 2: TGGTGGCTACGACGGGATT
B25: UGCUCGU (DNA:RNA)
RNA: B4 RNA with A25U, C26G, G27C, A30G
DNA 1: CAATCTGAATTCCGGTCTCCC
DNA 2: TGGTGGCTACGACGGGATT
B26: CCACCGC (DNA:RNA)
RNA: B22 RNA with U26C, A29C, A31C
DNA 1: CAATCTGAATTCCGGTCTCCC
DNA 2: TGGTGGCTACGACGGGATT
B27: UCAGCGG (DNA:RNA)
RNA: B4 RNA with A25U, G27A, U28G, A30G, U31G
DNA 1: CAATCTGAATTCCGGTCTCCC
DNA 2: TGGTGGCTACGACGGGATT
B28: UUUGCCU (DNA:RNA)
RNA: B4 RNA with A25U, C26U, G27U, U28G, A30C
DNA 1: CAATCTGAATTCCGGTCTCCC
DNA 2: TGGTGGCTACGACGGGATT
B29: GGAACUC (DNA:RNA)
RNA: B1 RNA with U27A, G28A, G29C, G31C
DNA 1: CAATCTGAATTCCGGTCTCCC
DNA 2: TGGTGGCTACGACGGGATT
B30: GUUAGGC (DNA:RNA)
RNA: B1 RNA with G26U, G28A, U30G, G31C
DNA 1: CAATCTGAATTCCGGTCTCCC
DNA 2: TGGTGGCTACGACGGGATT
B31: AUCCCGG (DNA:RNA)
RNA: B22 RNA with C25A, A27C, A29C, A31G
DNA 1: CAATCTGAATTCCGGTCTCCC
DNA 2: TGGTGGCTACGACGGGATT

biological target: T1, RBFOX1 RRM; test: EMSA; HiTS-Eq, 1 nM pool, 10 min; buffer printed only for the single-RNA assays: 10 mM Tris pH 7.5, 150 mM NaCl, 3.4 mM EDTA, 0.001% NP-40, 30 C; settings: tags: His6 N-terminal (pET28a); label: 5' 32P
Outline: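 These values rest on relative association constants, computed from read-count changes of each RNA species versus the control reaction and normalised to the cognate motif. Reads came from free RNA recovered by 8% native PAGE after purified RbFox RRM (wild type or mutant) at increasing concentrations was equilibrated for 10 min in 50 µL with 1 nM of a 5′-radiolabelled pool with 7 randomized nucleotides and DNA-annealed flanks.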

Binder	binding signal
B1	0.028 KA relative to UGCAUGU
B2	0.0109 KA relative to UGCAUGU
B3	0.0376 KA relative to UGCAUGU
B4	0.00209 KA relative to UGCAUGU
B5	0.00652 KA relative to UGCAUGU
B6	0.0131 KA relative to UGCAUGU
B7	0.0217 KA relative to UGCAUGU
B8	0.0187 KA relative to UGCAUGU
B9	0.0103 KA relative to UGCAUGU
B10	0.00149 KA relative to UGCAUGU
B11	0.0156 KA relative to UGCAUGU
B12	0.00944 KA relative to UGCAUGU
B13	0.000253 KA relative to UGCAUGU
B14	0.026 KA relative to UGCAUGU
B15	0.0106 KA relative to UGCAUGU
B16	0.0185 KA relative to UGCAUGU

Binder	binding signal
B17	0.000499 KA relative to UGCAUGU
B18	0.00834 KA relative to UGCAUGU
B19	0.00793 KA relative to UGCAUGU
B20	0.000705 KA relative to UGCAUGU
B21	0.0156 KA relative to UGCAUGU
B22	0.00632 KA relative to UGCAUGU
B23	0.00782 KA relative to UGCAUGU
B24	0.0141 KA relative to UGCAUGU
B25	0.0359 KA relative to UGCAUGU
B26	0.00519 KA relative to UGCAUGU
B27	0.0122 KA relative to UGCAUGU
B28	0.0166 KA relative to UGCAUGU
B29	0.0164 KA relative to UGCAUGU
B30	0.0106 KA relative to UGCAUGU
B31	0.00357 KA relative to UGCAUGU
